Assay results taken from US20250051434A1 (Merck Sharp & Dohme, published 2025).

B1: IL-12-Fc-30 (Fc fusion)
chain 1: TPDPGMFPCLHHSQNLLRAVSNMLQKARQTLEFYPCTSEEIDHEDITKDKTSTVEACLPLELTKNESCLNSRETSFITNGSCLASRKTSFMMALCLSSIYEDLKMYQVEFKTMNAKLLMDPKRQIFLDQNMLAVIDELMQALNFNSETVPQKSSLEEPDFYKTKIKLCILLHAFRIRAVTIDRVMSYLNASGGGGSGGGGSGGGGS[skipping human IgG1 Fc with L234A L235A D265S S354C T366W (EU numbers)]
chain 2: IWELKKDVYVVELDWYPDAPGEMVVLTCDTPEEDGITWTLDQSSEVLGSGKTLTIQVKEFGDAGQYTCHKGGEVLSHSLLLLHKKEDGDWSTDILKDQKEPKNKTFLRCEAKNYSGRFTCWWLTTISTDLTFSVKSSRGSSDPQGVTCGAATLSAERVRGDNKEYEYSVECQEDSACPAAEESLPIEVMVDAVHKLKYENYTSSFFIRDIIKPDPPKNLQLKPLKNSRQVEVSWEYPDTWSTPHSYFSLTFCVQVQGKSKREKKDRVFTDKTSATVICRKNASISVRAQDRYYSSSWSEWASVPCSGGGGDKTHTCPPCPAPEAAGGPSVFLFPPKPKDTLMISRTPEVTCVVVSVSHEDPEVKFNWYVDGVEVHNAKTKPREEQYNSTYRVVSVLTVLHQDWLNGKEYKCKVSNKALPAPIEKTISKAKGQPREPQVCTLPPSRDELTKNQVSLSCAVKGFYPSDIAVEWESNGQPENNYKTTPPVLDSDGSFFLVSKLTVDKSRWQQGNVFSCSVMHEALHNHYTQKSLSLSPGK
B2: IL-12-Fc-31 (Fc fusion)
chain 1: B1 chain 1
chain 2: B1 chain 2 with D89P
B3: IL-12-Fc-32 (Fc fusion)
chain 1: B1 chain 1
chain 2: B1 chain 2 with D89I, K104E
B4: IL-12-Fc-33 (Fc fusion)
chain 1: B1 chain 1
chain 2: B1 chain 2 with D89I, K104D
B5: IL-12-Fc-34 (Fc fusion)
chain 1: B1 chain 1
chain 2: B1 chain 2 with D89I, K104W
B6: IL-12-Fc-35 (Fc fusion)
chain 1: B1 chain 1
chain 2: B1 chain 2 with D89I, K104S
B7: IL-12-Fc-wt1 (Fc fusion)
chain 1: B1 chain 1
chain 2: B1 chain 2 with D89I
B8: IL-12-Fc-2 (Fc fusion)
chain 1: B1 chain 1 with E40R
chain 2: B1 chain 2 with D89I
B9: IL-12-Fc-36 (Fc fusion)
chain 1: B1 chain 1 with I41S
chain 2: B1 chain 2 with D87L, D89I
B10: IL-12-Fc-37 (Fc fusion)
chain 1: B1 chain 1 with E44R
chain 2: B1 chain 2 with D87L, D89I
B11: IL-12-Fc-38 (Fc fusion)
chain 1: B1 chain 1 with D159K
chain 2: B1 chain 2 with D87L, D89I
B12: IL-12-Fc-39 (Fc fusion)
chain 1: B1 chain 1 with D159R
chain 2: B1 chain 2 with D87L, D89I
B13: IL-12-Fc-40 (Fc fusion)
chain 1: B1 chain 1 with Y161S
chain 2: B1 chain 2 with D87L, D89I
B14: IL-12-Fc-41 (Fc fusion)
chain 1: B1 chain 1 with Y161T
chain 2: B1 chain 2 with D87L, D89I
B15: IL-12-Fc-42 (Fc fusion)
chain 1: B1 chain 1 with Y161A
chain 2: B1 chain 2 with D87L, D89I
B16: IL-12-Fc-43 (Fc fusion)
chain 1: B1 chain 1 with I41S
chain 2: B1 chain 2 with D89I, K104E
B17: IL-12-Fc-44 (Fc fusion)
chain 1: B1 chain 1 with E44R
chain 2: B1 chain 2 with D89I, K104E
B18: IL-12-Fc-45 (Fc fusion)
chain 1: B1 chain 1 with D159K
chain 2: B1 chain 2 with D89I, K104E
B19: IL-12-Fc-3 (Fc fusion)
chain 1: B1 chain 1 with E40W
chain 2: B1 chain 2 with D89I
B20: IL-12-Fc-46 (Fc fusion)
chain 1: B1 chain 1 with D159R
chain 2: B1 chain 2 with D89I, K104E
B21: IL-12-Fc-47 (Fc fusion)
chain 1: B1 chain 1 with Y161S
chain 2: B1 chain 2 with D89I, K104E
B22: IL-12-Fc-48 (Fc fusion)
chain 1: B1 chain 1 with Y161T
chain 2: B1 chain 2 with D89I, K104E
B23: IL-12-Fc-49 (Fc fusion)
chain 1: B1 chain 1 with Y161A
chain 2: B1 chain 2 with D89I, K104E
B24: IL-12-Fc-50 (Fc fusion)
chain 1: B1 chain 1 with I41S
chain 2: B1 chain 2 with D89I, K104D
B25: IL-12-Fc-51 (Fc fusion)
chain 1: B1 chain 1 with E44R
chain 2: B1 chain 2 with D89I, K104D
B26: IL-12-Fc-52 (Fc fusion)
chain 1: B1 chain 1 with D159K
chain 2: B1 chain 2 with D89I, K104D
B27: IL-12-Fc-53 (Fc fusion)
chain 1: B1 chain 1 with D159R
chain 2: B1 chain 2 with D89I, K104D
B28: IL-12-Fc-54 (Fc fusion)
chain 1: B1 chain 1 with Y161S
chain 2: B1 chain 2 with D89I, K104D
B29: IL-12-Fc-4 (Fc fusion)
chain 1: B1 chain 1 with I41A
chain 2: B1 chain 2 with D89I
B30: IL-12-Fc-56 (Fc fusion)
chain 1: B1 chain 1 with Y161A
chain 2: B1 chain 2 with D89I, K104D
B31: IL-12-Fc-wt2 (Fc fusion)
chain 1: B1 chain 1
chain 2: B1 chain 2 with D89I
B32: IL-12-Fc-5 (Fc fusion)
chain 1: B1 chain 1 with I41V
chain 2: B1 chain 2 with D89I
B33: IL-12-Fc-60 (Fc fusion)
chain 1: B1 chain 1 with D159K, Y161T
chain 2: B1 chain 2 with D87L, D89I, K104D
B34: IL-12-Fc-6 (Fc fusion)
chain 1: B1 chain 1 with I41S
chain 2: B1 chain 2 with D89I
B35: IL-12-Fc-7 (Fc fusion)
chain 1: B1 chain 1 with I41T
chain 2: B1 chain 2 with D89I

How the values were obtained:
Experiment in all cases: cell-based or functional assay
[1] = target: T1, human IL-12 receptor (IL-12R) (human, UniProt P42701 24-662; Q99665 24-862)
[2] = target: T1, human IL-12 receptor (IL-12R); remark: listed apart in the source
T1 sequence (Q99665 24-862, chain 2 of 2, other chains not shown): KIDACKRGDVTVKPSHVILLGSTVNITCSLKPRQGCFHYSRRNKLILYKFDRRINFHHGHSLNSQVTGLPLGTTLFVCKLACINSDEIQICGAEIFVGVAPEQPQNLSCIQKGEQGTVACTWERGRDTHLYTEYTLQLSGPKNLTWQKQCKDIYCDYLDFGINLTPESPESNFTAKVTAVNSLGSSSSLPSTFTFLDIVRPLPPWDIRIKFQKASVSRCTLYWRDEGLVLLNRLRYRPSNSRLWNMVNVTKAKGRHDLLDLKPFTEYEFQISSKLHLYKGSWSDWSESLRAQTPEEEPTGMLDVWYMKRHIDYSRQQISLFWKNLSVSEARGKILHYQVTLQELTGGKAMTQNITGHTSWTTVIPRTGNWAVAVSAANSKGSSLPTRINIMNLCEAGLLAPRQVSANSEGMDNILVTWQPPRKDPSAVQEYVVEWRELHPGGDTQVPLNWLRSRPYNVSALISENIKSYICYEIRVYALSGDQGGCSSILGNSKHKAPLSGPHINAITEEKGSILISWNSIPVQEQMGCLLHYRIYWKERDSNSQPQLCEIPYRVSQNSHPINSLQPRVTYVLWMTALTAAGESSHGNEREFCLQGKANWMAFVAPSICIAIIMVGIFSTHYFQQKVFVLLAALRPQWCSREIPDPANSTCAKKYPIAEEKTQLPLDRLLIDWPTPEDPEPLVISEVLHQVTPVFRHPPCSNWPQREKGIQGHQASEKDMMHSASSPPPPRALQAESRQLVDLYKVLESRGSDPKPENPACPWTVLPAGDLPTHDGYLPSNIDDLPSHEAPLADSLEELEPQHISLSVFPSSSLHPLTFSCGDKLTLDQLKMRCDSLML

[3] = target: T1, human IL-12 receptor (IL-12R); remark: listed apart in the source
[4] = target: rhesus monkey IL-12 receptor (rhesus monkey)

Binder	Mean Fold Reduction (potency vs IL-12 WT by EC50; HEK-Blue IL-12 STAT4/SEAP reporter) [1] [fold]	Mean Fold Reduction (potency vs IL-12 WT by EC50; HEK-Blue IL-12 STAT4/SEAP reporter) [2] [fold]	also measured
B1	2	–	–
B2	1	–	–
B3	4	–	–
B4	5	–	–
B5	3	–	–
B6	2	–	–
B7	–	1	–
B8	1	–	–
B9	–	1	–
B10	–	1	–
B11	–	1	–
B12	–	2	–
B13	–	12	–
B14	–	80	HEK Reporter Median EC50 values (ng/mL) (n = 3) [3]: 3640 ng/mL; Human PBMC Median EC50 values (ng/ml); IFNγ release from activated human PBMC in vitro (n = 8) [3]: 2850 ng/mL
B15	–	5	–
B16	–	3	–
B17	–	3	–
B18	–	1	–

Binder	Mean Fold Reduction (potency vs IL-12 WT by EC50; HEK-Blue IL-12 STAT4/SEAP reporter) [1] [fold]	Mean Fold Reduction (potency vs IL-12 WT by EC50; HEK-Blue IL-12 STAT4/SEAP reporter) [2] [fold]	also measured
B19	2	–	–
B20	–	1	–
B21	–	45	–
B22	–	209	–
B23	–	6	–
B24	–	2	–
B25	–	2	–
B26	–	2	–
B27	–	2	–
B28	–	195	–
B29	1	–	–
B30	–	32	–
B31	–	–	HEK Reporter Median EC50 values (ng/mL) (n = 3) [3]: 1.4 ng/mL; Human PBMC Median EC50 values (ng/ml); IFNγ release from activated human PBMC in vitro (n = 8) [3]: 1.4 ng/mL; Rhesus PBMC Median EC50 values (ng/ml); IFNγ release from activated rhesus PBMC in vitro (n = 10) [4]: 0.3 ng/mL
B32	2	–	–
B33	–	–	HEK Reporter Median EC50 values (ng/mL) (n = 3) [3]: 11700 ng/mL
B34	7	–	–
B35	1	–	–

Positions count from the first letter of the chain named. Where two headings read alike, the source gives them in different places.
